# In paper PMC4336329 (PLoS ONE, 2015):
# Hit rate of the full screen: of about 310,000 compounds, about 2,200 (0.71%) showed an effect of 50% or more. Effects have a minus sign here. Some of the results follow.
# Target: human ether-à-go-go-related gene (hERG) potassium channel (human, UniProt Q12809)
# Test: primary screen, population patch clamp on CHO cells stably expressing hERG
# Sequence of human ether-à-go-go-related gene (hERG) potassium channel (Q12809 whole entry, looked up): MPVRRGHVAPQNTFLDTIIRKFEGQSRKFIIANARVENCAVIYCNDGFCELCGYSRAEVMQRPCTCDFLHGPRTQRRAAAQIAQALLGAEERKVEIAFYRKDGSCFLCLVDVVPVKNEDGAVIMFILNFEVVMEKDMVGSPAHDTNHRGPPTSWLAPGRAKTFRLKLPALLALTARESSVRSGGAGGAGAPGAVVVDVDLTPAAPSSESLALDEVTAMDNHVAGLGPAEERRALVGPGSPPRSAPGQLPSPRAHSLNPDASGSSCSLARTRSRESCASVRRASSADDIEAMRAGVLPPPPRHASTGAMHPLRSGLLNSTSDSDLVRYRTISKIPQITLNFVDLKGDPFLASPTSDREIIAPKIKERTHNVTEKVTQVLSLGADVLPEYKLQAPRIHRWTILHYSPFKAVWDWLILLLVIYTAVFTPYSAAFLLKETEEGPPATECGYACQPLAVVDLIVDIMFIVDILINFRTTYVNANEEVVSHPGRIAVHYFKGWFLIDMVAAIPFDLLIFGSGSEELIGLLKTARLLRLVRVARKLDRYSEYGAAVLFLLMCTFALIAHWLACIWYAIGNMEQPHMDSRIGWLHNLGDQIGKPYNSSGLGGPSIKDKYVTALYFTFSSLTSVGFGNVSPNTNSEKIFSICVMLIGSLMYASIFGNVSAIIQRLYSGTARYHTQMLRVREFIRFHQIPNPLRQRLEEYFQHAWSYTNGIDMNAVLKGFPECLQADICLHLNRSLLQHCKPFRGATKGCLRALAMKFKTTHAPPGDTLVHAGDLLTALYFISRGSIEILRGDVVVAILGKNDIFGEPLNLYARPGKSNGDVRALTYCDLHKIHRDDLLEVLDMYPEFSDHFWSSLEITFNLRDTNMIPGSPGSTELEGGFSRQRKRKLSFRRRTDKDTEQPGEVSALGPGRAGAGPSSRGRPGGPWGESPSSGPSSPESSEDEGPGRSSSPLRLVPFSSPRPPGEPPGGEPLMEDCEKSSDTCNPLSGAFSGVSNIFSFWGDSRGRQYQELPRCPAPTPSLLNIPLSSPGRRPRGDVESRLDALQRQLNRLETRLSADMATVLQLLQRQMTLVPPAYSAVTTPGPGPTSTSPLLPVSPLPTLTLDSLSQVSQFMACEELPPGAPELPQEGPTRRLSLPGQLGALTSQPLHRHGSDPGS
row,Structure (SMILES),"hERG current change (%, negative = inhibition) at 1uM [%]"
1,COc1ccc(/C=N/NC(=O)NC23CC4CC(CC(C4)C2)C3)c(OC)c1,12.4
2,COc1ccc(-c2nc(CCl)cs2)cc1OC.Cl,-3.28
3,COc1ccc(-c2noc(CCC(=O)NCCc3ccccc3)n2)cc1OC,8.44
4,O=[N+]([O-])c1ccc(CS(=O)(=O)N2CCN(c3ccccc3)CC2)cc1,-3.45
5,Cl.O=C(CNCC1CCCCC1)Nc1ccc(OC(F)(F)F)cc1,-26.3
6,CCC(C)COC(c1ccccc1)(c1ccccc1)C(Oc1nc(C)cc(C)n1)C(=O)O (stereo not shown),15.4
7,CCOc1ccc(OCc2ccc(C(=O)NC(C)(C)C)o2)cc1,9.28
8,NC(=O)C1CCN(Cc2cccc(OCc3ccccc3)c2)CC1.O=C(O)C(=O)O,7.21
9,CC(C)=CC(=O)OCC(=O)Nc1ncc(Cl)c(C)c1Cl,5.43
10,CN(C)CCn1nnnc1SCC1=C(C(=O)O)N2C(=O)[C@@H](NC(=O)Cc3csc(N)n3)[C@H]2SC1.Cl,14
11,CC(=O)O[C@@]1(C)C[C@@H](O)[C@]2(O)C=CO[C@@H](O[C@@H]3O[C@H](CO)[C@@H](O)[C@H](O)[C@H]3O)[C@@H]21,14.8
12,C#CCSc1nnc(-c2sc3ccccc3c2Cl)o1,8.28
13,Cc1ccc(OCc2nc(-c3ccccc3)no2)cc1,12.3
14,C[n+]1c(-c2ccccc2)sc([S-])c1-c1ccccc1,5.05
15,COc1cccc(/C=C/C(=O)OCC(=O)NCC2CCCCC2)c1OC,8.8
16,C/C(=N\NC(=O)Cn1c(-c2ccccn2)nc2ccccc21)c1cccc(O)c1,10.9
17,Clc1ccc(-n2ncc3c(NCc4cccs4)ncnc32)cc1,0.512
18,COc1cc(O)c2c(=O)c3c(OC)c(O)ccc3oc2c1,13.9
19,CN(Cc1ccc(Cl)cc1)C(=O)CCl,13.3
20,COC(=O)c1sc(NC(=O)c2cccc([N+](=O)[O-])c2)c(C(N)=O)c1C,3.91
21,O=C(CNC(=O)c1cccs1)NC1=NCCS1,5.78
22,CN(C)S(=O)(=O)c1cccc(COC(=O)c2ccc3c(c2)OCO3)c1,6.23

row,Structure (SMILES),"hERG current change (%, negative = inhibition) at 1uM [%]"
1,O=C(NCc1ccco1)c1cccn2c(=O)c3c4c(sc3nc12)CCCC4,12
2,COc1ccc(OC)c(Nc2nc(-c3sc(N)nc3C)cs2)c1,7.91
3,Cc1ccc(C)c(NC(=O)CN(C)C(=O)[C@@H](NC(=O)c2ccc(C(C)(C)C)cc2)C(C)C)c1,8.03
4,Cc1cc(C(=O)NCc2cccs2)c(C)o1,-4.89
5,Cc1ccc(C)c(NC(=O)CSc2nnc(-c3ccccc3)n2N)c1,3.45
6,Cc1ccc(CS(=O)Cc2ccc(C(=O)NCc3cccs3)o2)cc1 (stereo not shown),1.89
7,O=C(NCCc1ccc(F)cc1)Nc1ccc2c(c1)OCO2,8.27
8,CN(c1ccccc1)S(=O)(=O)c1ccc(C(=O)Nc2nccs2)cc1,16.1
9,CC(C)C(OC(=O)c1cccs1)C(=O)NCc1cccs1 (stereo not shown),0.277
10,NC(=O)C1(C(N)=O)OC1c1ccc(Cl)cc1Cl (stereo not shown),13.3
11,CC(=O)C1(C)OC(N)=C(C#N)C(c2ccccc2)C1(C#N)C#N (stereo not shown),1.02
12,CCC(C)C(NC(=O)C1CCC(=O)N1C(=O)OCc1ccccc1)C(=O)NC(Cc1ccccc1)C(N)=O (stereo not shown),3.26
13,Cc1ccc(COc2ccc(/C=N/NC(=O)c3nnn(-c4nonc4N)c3COc3ccc(F)cc3)cc2)cc1,3
14,Cc1ccc(OCC(=O)Nc2ccc(CN3CCOCC3)cc2)cc1,9.56
15,CCCn1nc(C(=O)Nc2ccc(N3CCOCC3)cc2)c2ccccc2c1=O,1.6
16,Cc1ccc(C2CC(C(F)(F)F)n3ncc(C(N)=O)c3N2)cc1 (stereo not shown),-1.58
17,Cc1ccc(NC(=O)COc2cccc(/C=C3\SC(=S)N(CCC(=O)O)C3=O)c2)cc1Cl,6.41
18,COc1cnc(-c2ccccn2)nc1Oc1ccccc1,-36.5
19,S=C(NCc1ccccc1)N1CCn2cccc2C1c1ccncc1 (stereo not shown),9.11
20,CC1CC(C)CN(c2ccc([N+](=O)[O-])nc2)C1 (stereo not shown),14.9
21,CCc1cc[n+](/C(C(=S)Nc2cccc(C)c2)=C(/[O-])c2ccc(C)c([N+](=O)[O-])c2)cc1,-0.526
22,CCn1cc(CN(C)S(=O)(=O)c2ccc3ccccc3c2)c(C)n1,14.3

row,Structure (SMILES),"hERG current change (%, negative = inhibition) at 1uM [%]"
1,Cc1cc(C)c2c(SC(C)C)nc(N)nc2n1,9.51
2,CCOC(=O)c1cnc2sc3c(n2c1=O)CCCC3,-5.42
3,COc1ccc(OCC(O)CON2C(=O)c3ccccc3C2=O)cc1 (stereo not shown),-9.15
4,Cc1ccccc1OCC1CN(CN2CCOCC2)C(=O)O1 (stereo not shown),11.9
5,CCS(=O)(=O)c1nn2c(N)c(/C=C3/C=CC(=O)C(OC)=C3)c(=O)nc2s1,7.06
6,O=[N+]([O-])c1cccc(-c2ccn[nH]2)c1,10.4
7,Cn1cnnc1SCC(=O)N/N=C/c1ccc(OCC(N)=O)cc1,14
8,CCOc1c(Cl)cc(CNCC(C)C)cc1Cl.Cl,8.15
9,CCCCCSc1cc(O)c(C(CNC)C(C)C)cc1OC.O=C(O)/C=C\C(=O)O (stereo not shown),-1.06
10,COc1ccc(CCCc2nnc(SCc3nc4ccccc4c(=O)[nH]3)n2C)cc1,8.12
11,CCCCn1c2ccc(F)cc2c2nnc(NN)nc21,9.16
12,O=C(COC(=O)Cc1n[nH]c(=O)c2ccccc12)NNC(=O)c1ccc(Cl)cc1,-3.18
13,COc1ccccc1NC(=O)C1=C(C)Nc2nnnn2C1c1cc(Br)ccc1OC (stereo not shown),9.68
14,O=c1oc(-c2ccccc2NS(=O)(=O)c2ccc3ccccc3c2)nc2ccccc12,16.5
15,COc1ccccc1-c1c(C)nn2c(C)cc(C)nc12,-1.21
16,O=C(Nc1ccc(-c2cn3ccsc3n2)cc1)C1COc2ccccc2O1 (stereo not shown),12.6
17,C/C(=C\C(=O)c1ccc(Cl)cc1)Nc1ccc(Br)cc1,10.3
18,COc1ccc(-n2nc(C(=O)NCC(=O)N3CCN(c4ccccn4)CC3)c3ccccc3c2=O)c(OC)c1,11
19,O=C(Nc1ccccc1F)c1cc(Cl)sc1Cl,11.3
20,CC1=NN(c2ccccc2)C(=O)/C1=C/c1c(O)[nH]c(=O)[nH]c1=O,11
21,Cn1c(NN=O)nc2ccccc21,17.6
22,CC1(C)C2([N+](=O)[O-])CN3CC1([N+](=O)[O-])CN(C2)C3C(O)C(O)C(O)CO (stereo not shown),15.4

row,Structure (SMILES),"hERG current change (%, negative = inhibition) at 1uM [%]"
1,O=C(NC1(Cc2ccccc2)CCN(CCCc2ccccc2)C1=O)c1ccccc1 (stereo not shown),13.7
2,O=C1CC(c2ccccc2)CC(O)=C1C=NCc1ccncc1 (stereo not shown),4.86
3,C/C(=N\NC(=O)c1csc(C)c1C)c1ccc(C)s1,-0.21
4,NC(=O)C1CCN(C2=C(NS(=O)(=O)c3ccccc3)C(=O)c3ccccc3C2=O)CC1,5.89
5,COc1ccc(/C=N/NC(=O)c2ccc(NC(=O)C3CCCCC3)cc2)cc1O,8.66
6,COCCN1C(=O)c2cc(C(=O)Nc3ccc(C)c(F)c3)ccc2C1Nc1ccc(C)c(F)c1 (stereo not shown),6.09
7,O=Nc1c2ccc[nH]c-2c2ccc([N+](=O)[O-])cc12,10.3
8,N/C(=N\c1nc2c(c(=O)[nH]1)CCCC2)Nc1ccccc1Sc1ccccc1,2.21
9,CC(=O)NCCC(=O)Nc1cc(F)ccc1C,8.03
10,O=C1CC(N2CCN(c3ccc(F)cc3)CC2)C(=O)N1Cc1cccs1 (stereo not shown),-6.96
11,COc1ccc(/C=C/c2nc(-c3ccccc3O)n(-c3ccccc3)n2)cc1,4.95
12,Cc1oc2ccc(Br)cc2c(=O)c1-c1nn[nH]n1,2.52
13,Cc1cccc(C)c1NC(=O)c1c[nH]c2ccccc12,11.7
14,CC(=O)N1CCOc2ccc(S(=O)(=O)N3CCC(C(=O)Nc4ccc(C)c(C)c4)CC3)cc21,-2.04
15,Cc1noc(NC(=O)c2ccc(F)cc2)c1C#N,12.5
16,Cc1nnc(SCC(=O)NNC(=O)COc2ccc(Cl)cc2)n1C,15.5
17,Cc1cc(-c2nnc(CCC(=O)NCc3cc(F)cc(C(F)(F)F)c3)o2)no1,2.53
18,O=C(Cn1cc2c(n1)CCCC2)NCc1cccs1,9.19
19,O=[N+]([O-])c1ccc(N2CCCC(C(F)(F)F)C2)c2ccncc12 (stereo not shown),13.3
20,CC(C)c1cc(C(=O)Nc2cccnc2)no1,3.72
21,CCOc1cc(C2c3c(oc4cc(C)c(Cl)cc4c3=O)C(=O)N2Cc2ccco2)ccc1O (stereo not shown),17.3
22,Fc1ccccc1C1c2[nH]c3ccccc3c2CCN1Cc1cccn1-c1ncccn1 (stereo not shown),-11.9
